# The full ranking holds about 33,000 sequences; the median of “E-score (-0.5 to 0.5)” is about -0.013, and the highest 2% start at about 0.3. The list shows a part of the results.
# Target: T1, Msn1 (UniProt P22148)
# T1 sequence: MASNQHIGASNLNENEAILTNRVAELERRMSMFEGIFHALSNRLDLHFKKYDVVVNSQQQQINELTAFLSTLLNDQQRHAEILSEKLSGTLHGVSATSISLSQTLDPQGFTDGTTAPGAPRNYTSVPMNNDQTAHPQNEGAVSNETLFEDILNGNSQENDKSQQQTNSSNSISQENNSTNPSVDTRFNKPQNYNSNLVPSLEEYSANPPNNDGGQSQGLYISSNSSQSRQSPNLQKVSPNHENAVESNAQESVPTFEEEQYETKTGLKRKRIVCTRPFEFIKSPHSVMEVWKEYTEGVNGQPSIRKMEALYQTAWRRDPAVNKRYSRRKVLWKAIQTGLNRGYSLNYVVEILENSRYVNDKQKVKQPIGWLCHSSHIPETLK
# Experiment: PBM E-score (8-mer binding enrichment) (E-score (-0.5 to 0.5)); higher = stronger / more preferred TF binding; most listed sequences are background and not binding sites
# Conditions: protein concentration: 200 nM; construct: GST-full length
# Procedure: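 Universal 'all 10-mer' protein binding microarrays (Agilent AMADID 015681) probed with GST-tagged S. cerevisiae TFs (full-length or DBD) made by in vitro transcription/translation (PURExpress), about 100-200 nM. Bound TF was detected with fluorescent anti-GST. Each ungapped 8-mer (which stands for itself and its reverse complement) is scored by the PBM enrichment score (E-score), a modified Wilcoxon-Mann-Whitney statistic from -0.5 to +0.5, computed with the Universal PBM Analysis Suite. Scale: above 0.35 generally sequence-specific binding.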
row,Sequence,PBM E-score
1,TAACCCGA,0.105
2,TACTACGA,-0.0393
3,CTACCCTA,-0.287
4,GGCTCGTA,-0.0555
5,ACTTGCTG,0.017
6,ACGGCCTC,-0.23
7,CTCATTAC,0.0649
8,TCCGCCAA,-0.0375
9,GTTTACAA,0.092
10,GGCATGCA,0.103
11,AACCCTAC,-0.132
12,ATTATACG,0.138
13,ATGGACCC,-0.0808
14,AGGAGCAC,-0.0928
15,CATGTGTA,0.0787
16,AGGCCAAG,-0.21
17,AACAGGGA,0.134
18,CGAATGCA,0.0194
19,CCCACCCC,-0.109
20,AGCCTCTA,-0.246
21,CAGAGTGC,-0.025
22,AGATATTC,0.14
23,AATAAACG,0.16
24,ACATCTTG,0.167
25,CCGGAGAA,0.0438

row,Sequence,PBM E-score
1,ATCTAGTA,0.178
2,GTCCGTAA,0.291
3,GCCATCCA,-0.326
4,CGTGTGAC,0.0185
5,AAGTTGGC,0.0053
6,ATCAGGGA,-0.0191
7,GCTGTTCC,-0.0793
8,ATGCTATG,-0.104
9,GAGCTTAA,-0.136
10,CCGGTACG,-0.262
11,CTTCCACC,-0.298
12,AGGAGTAA,-0.125
13,GCACTCGA,-0.0517
14,ACTTATTA,0.0338
15,CATAAGCG,-0.0406
16,ACCAGTTC,-0.305
17,CGAATAGA,0.023
18,CCTTGGCG,-0.231
19,CGCTATCC,-0.00857
20,AGGTCTAC,-0.0162
21,GTATATTA,0.166
22,ACTCATTC,0.0308
23,TCTCCAAA,-0.012
24,AATGTTGA,-0.0252
25,TGATAGAA,0.0574

row,Sequence,PBM E-score
1,GATTCTTA,0.232
2,AAAGGCTT,0.0105
3,AAGTGCTG,0.0426
4,CGATTGCA,0.0766
5,ACTCTAAG,-0.076
6,CCCCTTAG,-0.247
7,ACTAGTCG,-0.0243
8,GATTCGTA,-0.0593
9,AACAACCC,-0.00716
10,CTGTCCTA,0.346
11,ATTCGTGC,0.113
12,CATCGAAG,-0.0041
13,AATTCTGG,0.0955
14,TATTGAAA,0.164
15,GCTGATCA,-0.0547
16,ATTGCCCG,0.0964
17,ATTCTTGA,0.062
18,CATGGCAG,0.146
19,AGCGCTGA,0.102
20,CCGGTTAC,0.0498
21,ATCAACCA,-0.0804
22,CCGAGCCG,0.0777
23,ATGATCAA,0.0719
24,GGTCCTAC,-0.113
25,ATTTAATG,0.202

row,Sequence,PBM E-score
1,AGAGCCGC,-0.0659
2,ACGAAGCT,-0.0736
3,ATGTAGCC,-0.116
4,ACATTGGA,0.135
5,CCGTTCTA,0.102
6,CCGCAACA,0.108
7,CGCATCAG,0.00197
8,ACGGGTCG,0.0213
9,ATATCACC,0.129
10,TGAAGGAA,-0.0021
11,CGCGCCAA,-0.0152
12,AATGCTAC,0.0726
13,CTAGTGGA,-0.211
14,GTCTCTTA,0.0849
15,CGCATTCA,0.07
16,AAGCAACG,0.0354
17,ATGACTGA,0.0657
18,GAACCGCA,0.0554
19,AACCTAGA,-0.0385
20,CGCAGCGC,-0.0947
21,ATTCGTCC,0.323
22,ATATACGA,0.0731
23,ACATGTCT,0.436
24,ATAGCGAC,0.0688
25,AAAGTGAG,0.149

row,Sequence,PBM E-score
1,GCGCCCAC,-0.0696
2,AGAGGGCA,-0.197
3,ACGAAACT,-0.0151
4,GCCGGGAA,-0.264
5,AAACGACG,0.165
6,AACCTAGG,-0.0201
7,GATCCTGA,0.0249
8,CCGAGGGC,-0.116
9,CAGCATCC,-0.166
10,TACCCCCA,-0.27
11,AGCCTTAC,-0.28
12,CGTGCTGA,-0.181
13,CACCCAAG,-0.175
14,GAGAACTA,-0.0426
15,TCATAGCA,-0.0556
16,CAAGATCC,0.0979
17,CCGACGAG,0.0312
18,CGGGGCAG,-0.0385
19,CTTGAATC,-0.0517
20,CTGGAGGA,-0.158
21,TGCGGTAA,0.0705
22,CCTATGCC,-0.163
23,CACGGCCA,-0.165
24,GGAGGGGA,-0.0779
25,GCCAACAA,6e-05

row,Sequence,PBM E-score
1,CCAGCAAG,0.0683
2,ACCGGTCC,-0.139
3,GACTAACA,0.248
4,CCTCTGTA,-0.0291
5,AGCAGACC,-0.0268
6,AAGTCGTG,0.156
7,GAGGTAGC,-0.219
8,CGGTCACA,0.019
9,ACAAAACG,0.237
10,AATAGTGT,0.172
11,CCTAAACA,0.0191
12,ATATCCAA,0.103
13,AATTGTTC,0.245
14,TAGTCTAA,0.0219
15,CCGAGCGC,0.0676
16,TTCTCCAA,-0.0782
17,GCAAGGCC,-0.22
18,CGCTAACG,0.13
19,GCAAGTAC,0.0709
20,AATCGATC,0.063
21,GAAAGGGC,-0.141
22,AAGACAAG,0.343
23,CGTGGGTA,-0.124
24,CTTGTCAC,0.296
25,AGATGTGG,0.0384

row,Sequence,PBM E-score
1,AGCATGAC,-0.217
2,CTGAGTCC,0.125
3,CACACTGA,-6e-05
4,GTCGCCCA,-0.147
5,ATATAGGG,-0.167
6,AACCCGCC,-0.177
7,GGGAGACC,-0.362
8,GTGATGTA,0.182
9,GTACAGAA,0.105
10,CTCACGCC,-0.209
11,GGTTAAAA,0.047
12,TGCCTTAA,-0.283
13,CTACTACC,-0.0077
14,ACACGTAA,0.0612
15,GCAGAGAA,0.0322
16,GCCGGTCC,-0.233
17,CGGCTCAC,-0.118
18,AATGGAAA,-0.0531
19,CCGGGGAA,-0.149
20,CGCGAGCC,0.057
21,AAGGGCAT,-0.00892
22,GTCTCAAC,0.136
